Test results taken from publication PMC10531988.
Where two headings read alike, the source gives them in different places. No constants are given. Whether binding was seen depends on the method and setting. In cells and extracts the contact can be indirect. Some results given as binding are weak or reduced against the parent protein; the word gives no strength. For some assays here: Tags and fused reporters may be left off the sequences shown.

Protein sequences, listed by entry. Tags and fused reporters are not part of them. Lines headed by an entry give the natural chain unless they say otherwise; changes in a name come on top.
UniProt Q9NXV2: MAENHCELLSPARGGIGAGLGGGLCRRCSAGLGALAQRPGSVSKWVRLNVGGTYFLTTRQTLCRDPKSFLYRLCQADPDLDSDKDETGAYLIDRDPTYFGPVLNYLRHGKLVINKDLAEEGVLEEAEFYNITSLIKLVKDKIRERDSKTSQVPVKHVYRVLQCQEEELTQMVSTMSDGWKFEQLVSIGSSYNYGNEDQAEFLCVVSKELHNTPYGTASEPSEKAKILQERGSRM
UniProt Q68DU8: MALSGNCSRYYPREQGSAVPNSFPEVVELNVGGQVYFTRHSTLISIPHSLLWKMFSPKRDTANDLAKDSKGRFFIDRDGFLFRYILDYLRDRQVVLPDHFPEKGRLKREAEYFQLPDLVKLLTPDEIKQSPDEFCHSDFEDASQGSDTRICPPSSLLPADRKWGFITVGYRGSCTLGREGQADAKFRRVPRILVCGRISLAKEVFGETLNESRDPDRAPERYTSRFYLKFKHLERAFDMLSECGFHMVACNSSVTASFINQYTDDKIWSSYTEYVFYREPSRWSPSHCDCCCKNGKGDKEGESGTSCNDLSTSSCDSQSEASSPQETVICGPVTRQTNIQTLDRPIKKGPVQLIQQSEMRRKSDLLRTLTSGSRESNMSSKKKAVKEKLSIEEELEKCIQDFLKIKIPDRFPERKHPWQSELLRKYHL
UniProt Q6ZWB6: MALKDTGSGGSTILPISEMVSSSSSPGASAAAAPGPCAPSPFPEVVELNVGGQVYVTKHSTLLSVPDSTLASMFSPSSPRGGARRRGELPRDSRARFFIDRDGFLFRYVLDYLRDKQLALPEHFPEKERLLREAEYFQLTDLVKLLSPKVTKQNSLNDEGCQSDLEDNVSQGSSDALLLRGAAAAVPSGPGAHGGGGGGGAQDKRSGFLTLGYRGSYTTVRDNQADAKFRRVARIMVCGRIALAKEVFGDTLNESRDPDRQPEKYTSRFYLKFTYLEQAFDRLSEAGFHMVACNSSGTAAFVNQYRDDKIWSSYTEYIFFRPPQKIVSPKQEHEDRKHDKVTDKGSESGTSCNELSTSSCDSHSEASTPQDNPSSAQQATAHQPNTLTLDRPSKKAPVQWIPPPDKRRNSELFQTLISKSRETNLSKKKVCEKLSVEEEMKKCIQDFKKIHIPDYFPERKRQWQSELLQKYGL
UniProt Q96CX2: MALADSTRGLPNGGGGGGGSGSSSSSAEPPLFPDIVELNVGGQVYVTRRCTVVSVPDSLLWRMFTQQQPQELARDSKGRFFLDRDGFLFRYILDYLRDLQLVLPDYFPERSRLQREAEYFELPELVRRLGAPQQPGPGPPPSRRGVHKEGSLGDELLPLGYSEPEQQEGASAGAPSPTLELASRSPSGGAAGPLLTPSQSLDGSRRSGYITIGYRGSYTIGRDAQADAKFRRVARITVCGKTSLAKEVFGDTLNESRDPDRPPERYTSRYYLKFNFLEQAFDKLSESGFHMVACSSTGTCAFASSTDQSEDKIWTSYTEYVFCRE
UniProt Q14681: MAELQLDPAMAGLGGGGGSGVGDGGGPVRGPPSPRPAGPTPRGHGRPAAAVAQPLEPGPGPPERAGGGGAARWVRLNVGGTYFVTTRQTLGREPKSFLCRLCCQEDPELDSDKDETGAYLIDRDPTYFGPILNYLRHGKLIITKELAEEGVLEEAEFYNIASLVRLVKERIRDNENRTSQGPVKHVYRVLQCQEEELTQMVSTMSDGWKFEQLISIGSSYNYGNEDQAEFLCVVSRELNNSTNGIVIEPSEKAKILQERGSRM
UniProt Q8N5Z5: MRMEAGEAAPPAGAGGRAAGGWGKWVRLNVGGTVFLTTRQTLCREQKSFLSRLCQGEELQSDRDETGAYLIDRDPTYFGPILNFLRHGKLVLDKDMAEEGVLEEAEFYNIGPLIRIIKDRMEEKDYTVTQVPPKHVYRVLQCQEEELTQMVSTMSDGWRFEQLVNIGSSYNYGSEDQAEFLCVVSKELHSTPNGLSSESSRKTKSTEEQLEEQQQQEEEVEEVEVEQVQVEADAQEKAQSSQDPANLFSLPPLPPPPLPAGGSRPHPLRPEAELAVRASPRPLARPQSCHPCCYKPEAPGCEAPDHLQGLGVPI

T1: KCTD9-myc-flag (human) (UniProt Q7L273)
T1 sequence: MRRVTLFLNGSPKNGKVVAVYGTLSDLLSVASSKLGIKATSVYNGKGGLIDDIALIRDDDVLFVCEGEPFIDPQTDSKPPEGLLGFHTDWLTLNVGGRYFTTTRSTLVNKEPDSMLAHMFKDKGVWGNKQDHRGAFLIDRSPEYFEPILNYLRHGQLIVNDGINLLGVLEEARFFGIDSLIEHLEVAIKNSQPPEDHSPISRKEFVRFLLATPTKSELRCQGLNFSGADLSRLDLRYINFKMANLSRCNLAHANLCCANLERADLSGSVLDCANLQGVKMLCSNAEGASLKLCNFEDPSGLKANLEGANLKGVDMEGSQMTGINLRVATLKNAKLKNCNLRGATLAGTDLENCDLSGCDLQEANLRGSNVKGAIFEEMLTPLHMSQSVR

B1: KCTD9-myc-flag (protein, UniProt Q7L273 1-389)
chain: T1 sequence
B2: KCTD11-myc-flag (protein, UniProt Q693B1 1-232)
chain: MLGAMFRAGTPMPPNLNSQGGGHYFIDRDGKAFRHILNFLRLGRLDLPRGYGETALLRAEADFYQIRPLLDALRELEASQGTPAPTAALLHADVDVSPRLVHFSARRGPHHYELSSVQVDTFRANLFCTDSECLGALRARFGVASGDRAEGSPHFHLEWAPRPVELPEVEYGRLGLQPLWTGGPGERREVVGTPSFLEEVLRVALEHGFRLDSVFPDPEDLLNSRSLRFVRH
B3: KCTD7-myc-flag (protein, UniProt Q96MP8 1-289)
chain: MVVVTGREPDSRRQDGAMSSSDAEDDFLEPATPTATQAGHALPLLPQEFPEVVPLNIGGAHFTTRLSTLRCYEDTMLAAMFSGRHYIPTDSEGRYFIDRDGTHFGDVLNFLRSGDLPPRERVRAVYKEAQYYAIGPLLEQLENMQPLKGEKVRQAFLGLMPYYKDHLERIVEIARLRAVQRKARFAKLKVCVFKEEMPITPYECPLLNSLRFERSESDGQLFEHHCEVDVSFGPWEAVADVYDLLHCLVTDLSAQGLTVDHQCIGVCDKHLVNHYYCKRPIYEFKITWW
B4: TNFAIP1-myc-flag (protein, UniProt Q13829 1-316)
chain: MSGDTCLCPASGAKPKLSGFKGGGLGNKYVQLNVGGSLYYTTVRALTRHDTMLKAMFSGRMEVLTDKEGWILIDRCGKHFGTILNYLRDDTITLPQNRQEIKELMAEAKYYLIQGLVNMCQSALQDKKDSYQPVCNIPIITSLKEEERLIESSTKPVVKLLYNRSNNKYSYTSNSDDHLLKNIELFDKLSLRFNGRVLFIKDVIGDEICCWSFYGQGRKLAEVCCTSIVYATEKKQTKVEFPEARIYEETLNVLLYETPRVPDNSLLEATSRSRSQASPSEDEETFELRDRVRRIHVKRYSTYDDRQLGHQSTHRD
B5: KCTD19-myc-flag (protein, UniProt Q17RG1 1-926)
chain: MEESGMAHESAEDLFHFNVGGWHFSVPRSKLSQFPDSLLWKEASALTSSESQRLFIDRDGSTFRHVHYYLYTSKLSFSSCAELNLLYEQALGLQLMPLLQTLDNLKEGKHHLRVRPADLPVAERASLNYWRTWKCISKPSEFPIKSPAFTGLHDKAPLGLMDTPLLDTEEEVHYCFLPLDLVAKYPSLVTEDNLLWLAETVALIECECSEFRFIVNFLRSQKILLPDNFSNIDVLEAEVEILEIPALTEAVRWYRMNMGGCSPTTCSPLSPGKGARTASLESVKPLYTMALGLLVKYPDSALGQLRIESTLDGSRLYITGNGVLFQHVKNWLGTCRLPLTETISEVYELCAFLDKRDITYEPIKVALKTHLEPRTLAPMDVLNEWTAEITVYSPQQIIKVYVGSHWYATTLQTLLKYPELLSNPQRVYWITYGQTLLIHGDGQMFRHILNFLRLGKLFLPSEFKEWPLFCQEVEEYHIPSLSEALAQCEAYKSWTQEKESENEEAFSIRRLHVVTEGPGSLVEFSRDTKETTAYMPVDFEDCSDRTPWNKAKGNLVRSNQMDEAEQYTRPIQVSLCRNAKRAGNPSTYSHCRGLCTNPGHWGSHPESPPKKKCTTINLTQKSETKDPPATPMQKLISLVREWDMVNCKQWEFQPLTATRSSPLEEATLQLPLGSEAASQPSTSAAWKAHSTASEKDPGPQAGAGAGAKDKGPEPTFKPYLPPKRAGTLKDWSKQRTKERESPAPEQPLPEASEVDSLGVILKVTHPPVVGSDGFCMFFEDSIIYTTEMDNLRHTTPTASPQPQEVTFLSFSLSWEEMFYAQKCHCFLADIIMDSIRQKDPKAITAKVVSLANRLWTLHISPKQFVVDLLAITGFKDDRHTQERLYSWVELTLPFARKYGRCMDLLIQRGLSRSVSYSILGKYLQED

Key:
[1] = target: Venus-FL (full-length KCTD5 with Venus fused to the N-terminus) (human) (UniProt Q9NXV2); experiment: co-IP; HEK293 cells co-transfected 1:1; lysate (1% Triton-X, 150 mM NaCl); IP of Venus-tagged KCTD5 or its fragments with anti-GFP antibody and Dynabeads Protein G, 2 h, +4 °C; Western blot with anti-myc antibody
[2] = target: Venus-BTB (KCTD5 BTB domain AA 40–151, Venus fused to the N-terminus) (human) (UniProt Q9NXV2); experiment: as above
[3] = target: KCTD5-Venus (human) (UniProt Q9NXV2); experiment: as above
[4] = target: Venus-ΔN (KCTD5 with AA 1–39 deleted, Venus fused to the N-terminus) (human) (UniProt Q9NXV2); experiment: as above
[5] = target: KCTD16-myc-flag (human) (UniProt Q68DU8); experiment: co-IP; IP-luminescence: HEK293 cells co-transfected 1:1 with Nluc-KCTD5 constructs and KCTD-myc-flag; lysate; IP with anti-DYKDDDDK magnetic agarose, 2 h, +4 °C; luminescence of the IP divided by that of the total lysate
[6] = target: KCTD8-myc-flag (human) (UniProt Q6ZWB6); experiment: as above
[7] = target: KCTD12-myc-flag (human) (UniProt Q96CX2); experiment: as above
[8] = target: KCTD5-myc-flag (human) (UniProt Q9NXV2); experiment: as above
[9] = target: KCTD2-myc-flag (human) (UniProt Q14681); experiment: as above
[10] = target: KCTD17-myc-flag (human) (UniProt Q8N5Z5); experiment: as above
[11] = target: T1, KCTD9-myc-flag (human); experiment: as above
[12] = target: KCTD5-Venus (human) (UniProt Q9NXV2); experiment: co-IP; HEK293 cells co-transfected 1:1; lysate (1% Triton-X, 150 mM NaCl); IP of Venus-tagged KCTD5 or its fragments with anti-GFP antibody and Dynabeads Protein G, 2 h, +4 °C; Western blot with anti-myc antibody; remark: listed apart in the source

Molecule | binding [5] | binding [6] | binding [7] | binding [8] | binding [9] | binding [10] | binding [12] | also measured
KCTD5-myc-flag (from UniProt Q9NXV2 1-234) | – | – | – | – | – | – | – | binding [1]: binds; binding [2]: binds; binding [3]: binds; binding [4]: binds
Nluc-BTB (KCTD5 BTB domain AA 40–151, N-terminal Nanoluciferase) (from UniProt Q9NXV2 40-151) (domain or fragment) | binds | no binding | no binding | binds | binds | binds | – | –
Nluc-CT (KCTD5 C-terminal AA 149–234, N-terminal Nanoluciferase) (from UniProt Q9NXV2 149-234) (domain or fragment) | binds | binds | binds | – | no binding | no binding | – | –
Nluc-FL (full-length KCTD5 with N-terminal Nanoluciferase) (from UniProt Q9NXV2 1-234) | binds | binds | no binding | binds | binds | binds | – | binding [11]: no binding
Nluc-ΔN (KCTD5 with AA 1–39 deleted, N-terminal Nanoluciferase) (from UniProt Q9NXV2 40-234) (domain or fragment) | – | binds | no binding | binds | binds | binds | – | –
B1 | – | – | – | – | – | – | no binding | –
B2 | – | – | – | – | – | – | no binding | –
B3 | – | – | – | – | – | – | no binding | –
B4 | – | – | – | – | – | – | no binding | –
B5 | – | – | – | – | – | – | no binding | –
